Measured values: the supplement of paper PMC10126150
Values marked as one replicate rest on one cluster of the flow cell; about a third of the high ones do not repeat.

System: ATP
Test: switch fluorescence ratio, 500 uM ATP over buffer (Cy3 cluster intensity, sum of 5 cycles each) (fold (ratio)); higher = stronger signal-on switching upon ATP binding; sequences stand for … in TCGTCGGCAGCGTCAGATGTGTATAAGAGACAGTTTTTTTTTTTTTTTTTTTTTTTTT…TC
Conditions: aptamer strand: ATP DNA aptamer (quencher-CACCTGGGGGAGTATTGCGGAGGAAGG + anchor), 100 nM annealed; ATP concentration: 500 uM; one replicate
In short: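 The fluorescence ratio divides summed target-cycle Cy3 intensity by summed buffer-cycle Cy3 intensity for each cluster and is averaged per switch-domain sequence. Cy3-labelled switching-strand clusters on a modified Illumina MiSeq flow-cell were annealed to 100 nM quencher-labelled ATP aptamer, then imaged in selection buffer and again after 15 min with 500 uM ATP at 22 °C. Five such cycles were run, with NaOH stripping and re-annealing between them, and clusters outside 100-1000 RFU were excluded.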
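Also: ATP exposure 15 min at 22 °C before imaging.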

Sequence	switch fluorescence ratio
GATATTTCTA	0.993
ATGTATCGAT	0.974
CCAACGCAGG	4.37
CCTGACTAAT	1.1
AAATTGTGCA	1.04
GGATAATAGC	1.02
AAATAGCGGC	1.03
TTATCCCGGC	0.939
GGGTCTTGGT	0.949
TCGGCCGTCA	1.03
ATGCCCTTAT	0.974
CGTCAGGTAC	1.7
AAAAATTTAT	1
CTATTCCGGC	1.03
TTGCATATTG	1.06
CAGCCTAGTT	1
TAGCGCGGGG	1.11
CTGAGGTGGG	0.995
TTGCCCAAAA	1.04
GCAGGTTAGG	1
AAGCCGGGT	0.935
GGGATTTACA	0.98
CGGTATGAAG	0.967
CGGCACAAGG	1.01
TCACCTCGAT	1.04
GTTTAGGGAC	1.04

Sequence	switch fluorescence ratio
GGAATTAATA	1
ACGCACGTAT	1.24
CTATAGGGCG	1
TACTGTGGGA	1.03
ATCACTTCTT	0.994
CGGACCGGAT	1
CCTCAGTGGT	1.02
TGGAGGGAGC	1.01
GGTGGAAATA	0.97
TGTTTTATC	0.99
TTCAATGCTT	1
AGTGAAGTCC	1.01
GAGGGCTGCG	1.02
AAACAGGATG	1.02
TTAGCGTCG	1.01
CCAGTATAGG	0.967
ATTGATGTGT	1.03
TTATGCGACC	1.23
CAGCGAACGT	0.98
AATCATGA	0.964
TCATAGTGGC	1.03
GCAGGTGCTC	1.54
ATTTTAGCGA	1.01
TAAAGAGACT	1.03
CATAATAATT	0.998
CGTGATTCTG	1.02

Sequence	switch fluorescence ratio
TTGATCCGCA	3.68
ACCCTTTTAT	1.05
GGCGGTTGGT	0.986
TGGTGTAGCT	1.12
GTCCCGTATA	1.04
TTAAGTATGA	0.966
CTTAAATCCA	0.977
CTCAGCATAG	4.63
GATATGCGAG	0.975
TCATTTACGC	1.04
CTGCAGGCAG	1
CTGGGCTTTC	1.02
AGAGCGGGAT	0.999
TAATCAGGAC	0.995
CAAGCGGACG	1.04
CAAGAGGCGG	0.914
CAGCTAGGGA	0.961
CAATGTCTTG	1.02
AAGCAGATGG	1.03
TACGGAGGTG	1.05
CGTTGGGAT	1
CTGACGGGG	1.06
TTTAACGCGT	0.975
GACCATGGCG	1.03
GTAGTCTAAC	1.05
TTTCAAGTT	1.01

Sequence	switch fluorescence ratio
CAAACTATTC	0.96
AAACATTTTT	1.01
GTCTCGGCAG	1.03
CAGAAAACGC	1.47
TACGTGGTTT	1.03
AGAAAAACAG	1.09
CGAGTCAAAG	1.02
TGCTGCGCGT	1.1
ATGCAGTGGG	1.06
AGATAACTT	1.01
TACGGGTGGT	0.988
CCTTTACTTT	1.03
GGTTCACAAT	1.02
CCACTGGTCT	1.03
GGCGGCATAC	2.99
GTCCGGCATT	1.03
TTCCGCATGT	4.78
TCTTCTGGTT	1.35
GGTTAGGGCA	0.98
TCATATCGTA	0.975
ATGGCGCCCG	1.02
CGGCTAATTT	1.02
TGTGTCCAGA	0.988
ATACATTTGC	0.989
AGTTGTAGG	1
ATCAGCAAGA	1.03

Sequence	switch fluorescence ratio
CTTGCTATC	1.24
AAGTCCGGGT	0.984
GTTAAGTATT	0.955
AATGTCAATC	1.05
TGGTCGGCCA	1.03
CAGGTGTAGT	1.23
AGTATCCAAC	0.996
CCTGGTTCCA	0.981
GCAGTTTCTG	0.971
TAGGATGGTA	1
GTATCTGTAT	0.972
CAATACATTA	1.08
CGGATTTGCT	0.957
ATGACGGCTT	1.02
TAGGCGTAG	1.03
GTCGACACAT	0.979
TTAAGGGCGT	1.02
CTAAGGTGTG	0.993
GGGTACGGAG	1.01
GGCTCCCCTT	1.28
GACGTTGTGA	0.97
ACGTCAAACC	1.26
TATCGTTATA	1.01
GCATTGAATA	0.956
CGCTTGCCTG	1.03
CGTCGTACGG	1.01

Sequence	switch fluorescence ratio
ATATCTTGCG	1.02
ACAAAGGCAC	1.03
GCTGACCCTG	0.997
TCGGTAAAGC	0.963
GTGCCGTTTT	0.986
TATTTGCGGG	1.01
TCGGGCGCCT	1.23
AAGAGATGA	1.01
CAGAATTGGT	1.02
TCTGGTCACT	0.991
TTGCTGGGAG	0.977
TCTGAAAGTT	0.989
CAGGAGGCCA	1.03
GGCTTGGCGG	0.999
GAGGCGCCCG	0.951
AAAGCCCCGT	0.97
AGTAGGTCA	1.04
GCAGAAAGAT	0.987
CTCAAGGATA	1.07
AACTTACGTC	1.28
CGCGGACTAA	1.05
TTCTCAGGTA	1.06
TATCGCTATG	1.06
